The results in this text go back to patent US20050147610A1 (AbbVie / Abbott, published 2005).

Where only a bound is given, the exact number is not on record here.

Assay [1] concerns the target T1, (4C/A)-huIL-18 (4C/A mutant of mature human IL-18) (human, UniProt Q14116 37-193).
T1 construct: All four Cys of mature IL-18 are changed to Ala; also called 4C/A mutant of IL-18; Cysteine > Alanine mutant BV derived rec. human IL-18
The assay can be described thus: BIACORE, (4C/A)-HuIL-18.

In assay [2] the target is T2, natural human IL-18 (endogenous, human whole blood) (human, UniProt Q14116 37-193). As to the kind of experiment: cell-based or functional assay.
Assay [3] concerns the target recombinant mature human IL-18 (preparation not specified) (human, UniProt Q14116 37-193). As to the kind of experiment: cell-based or functional assay.
A further assay deals with T3, recombinant human LTα2β1 (human, UniProt P01374 35-205; Q06643 49-244, limits assumed).
T3 construct: Copies read from the printed name
T3 sequence (looked up) 1: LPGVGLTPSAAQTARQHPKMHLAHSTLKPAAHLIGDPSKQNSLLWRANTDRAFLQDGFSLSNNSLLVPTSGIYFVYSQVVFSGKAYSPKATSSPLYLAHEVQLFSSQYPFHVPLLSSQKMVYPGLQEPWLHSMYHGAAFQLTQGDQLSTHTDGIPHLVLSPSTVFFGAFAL
T3 sequence (looked up) 2: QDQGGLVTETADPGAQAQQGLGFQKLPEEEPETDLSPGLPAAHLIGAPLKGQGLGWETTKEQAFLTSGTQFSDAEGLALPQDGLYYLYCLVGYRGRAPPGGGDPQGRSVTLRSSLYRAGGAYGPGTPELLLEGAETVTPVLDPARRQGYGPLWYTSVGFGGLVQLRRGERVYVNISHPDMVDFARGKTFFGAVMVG
As to the kind of experiment: BIACORE, antibody captured, cytokine in solution.

The target in the next assay is recombinant human IL-8 (human, UniProt P10145 28-99, limits assumed). As to the kind of experiment: BIACORE, antibody captured, cytokine in solution.
The next assay deals with T4, recombinant human IL-3 (human, UniProt P08700 20-152).
T4 sequence (looked up): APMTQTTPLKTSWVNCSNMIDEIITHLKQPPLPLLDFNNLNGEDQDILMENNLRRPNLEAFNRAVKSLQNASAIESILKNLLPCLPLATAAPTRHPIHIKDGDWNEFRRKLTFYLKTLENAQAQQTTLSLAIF
The assay can be described thus: BIACORE, antibody captured, cytokine in solution.

The target in another assay is recombinant human IL-21 (human, UniProt Q9HBE4 in part, limits assumed). The assay can be described thus: BIACORE, antibody captured, cytokine in solution.
A further assay deals with recombinant human IL-10 (human, UniProt P22301 19-178). As to the kind of experiment: BIACORE, antibody captured, cytokine in solution.
The target of a further assay is T5, recombinant human IL-7 (human, UniProt P13232 26-177).
T5 sequence (looked up): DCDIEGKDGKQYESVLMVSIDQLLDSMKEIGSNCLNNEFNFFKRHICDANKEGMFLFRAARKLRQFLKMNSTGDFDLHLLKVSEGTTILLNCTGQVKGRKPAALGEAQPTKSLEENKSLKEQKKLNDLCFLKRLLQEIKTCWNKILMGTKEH
As to the kind of experiment: BIACORE, antibody captured, cytokine in solution.

In another assay the target is recombinant human IL-1β (human, UniProt P01584 117-269). The assay can be described thus: BIACORE, antibody captured, cytokine in solution.
Another assay has as its target recombinant human IL-6 (human, UniProt P05231 30-212). The assay can be described thus: BIACORE, antibody captured, cytokine in solution.
The next assay has as its target T6, recombinant human IL-4 (human, UniProt P05112 25-153).
T6 sequence (looked up): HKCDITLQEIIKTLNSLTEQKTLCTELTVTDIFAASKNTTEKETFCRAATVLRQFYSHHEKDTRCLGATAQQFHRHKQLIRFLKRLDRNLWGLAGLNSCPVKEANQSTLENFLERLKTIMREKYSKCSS
As to the kind of experiment: BIACORE, antibody captured, cytokine in solution.

For a further assay, the target named is recombinant human TNF (human, UniProt P01375 in part). As to the kind of experiment: BIACORE, antibody captured, cytokine in solution.
The next assay concerns the target T7, recombinant human LTα1β2 (human, UniProt P01374 35-205; Q06643 49-244, limits assumed).
T7 construct: Copies read from the printed name
T7 sequence (looked up) 1: T3 sequence (looked up) 1
T7 sequence (looked up) 2: T3 sequence (looked up) 2
As to the kind of experiment: BIACORE, antibody captured, cytokine in solution.

A further assay has as its target T8, recombinant human IL-1α (human, UniProt P01583 113-271).
T8 sequence (looked up): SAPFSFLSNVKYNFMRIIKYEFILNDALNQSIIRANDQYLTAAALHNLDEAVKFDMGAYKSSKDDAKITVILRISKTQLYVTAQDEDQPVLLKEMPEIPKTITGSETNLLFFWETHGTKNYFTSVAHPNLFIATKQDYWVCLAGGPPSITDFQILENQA
As to the kind of experiment: BIACORE, antibody captured, cytokine in solution.

In a further assay the target is 125I labeled rhu-IL-18 (human, UniProt Q14116 37-193, NEM-treated cysteines; 125I label on lysine residues). The assay can be described thus: RBA: inhibition of 125I-rhu-IL-18 binding to IL-18Rαβ on KG-1 cells.
The target of assay [4] is T2, natural human IL-18 (endogenous, human …). The assay can be described thus: cell-based or functional assay. This is another data set of the same source.
The target in assay [5] is NEM-huIL-18 (recombinant mature human IL-18 treated with N-ethyl maleiamide) (human, UniProt Q14116 37-193, cysteines protected with N-ethyl maleiamide (NEM)). The assay can be described thus: cell-based or functional assay.

Chain of recombinant human IL-6 (P05231 30-212 limits assumed): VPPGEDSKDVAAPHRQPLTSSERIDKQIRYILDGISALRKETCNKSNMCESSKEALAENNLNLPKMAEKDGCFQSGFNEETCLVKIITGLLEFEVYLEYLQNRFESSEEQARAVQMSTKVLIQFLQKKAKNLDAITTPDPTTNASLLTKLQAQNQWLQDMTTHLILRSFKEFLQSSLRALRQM
Chain of recombinant human IL-21 (Q9HBE4 32-162 limits assumed): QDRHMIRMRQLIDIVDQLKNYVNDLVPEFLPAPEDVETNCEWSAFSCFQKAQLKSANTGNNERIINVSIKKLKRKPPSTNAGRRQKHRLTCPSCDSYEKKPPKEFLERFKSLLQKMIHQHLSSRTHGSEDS
Chain of recombinant human IL-10 (P22301 19-178 limits assumed): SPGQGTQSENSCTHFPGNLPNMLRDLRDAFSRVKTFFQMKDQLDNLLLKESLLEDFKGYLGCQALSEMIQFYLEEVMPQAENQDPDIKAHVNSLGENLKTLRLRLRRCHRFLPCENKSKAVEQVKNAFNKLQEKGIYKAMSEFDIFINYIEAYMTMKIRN
Chain of recombinant human TNF (P01375 77-233 limits assumed): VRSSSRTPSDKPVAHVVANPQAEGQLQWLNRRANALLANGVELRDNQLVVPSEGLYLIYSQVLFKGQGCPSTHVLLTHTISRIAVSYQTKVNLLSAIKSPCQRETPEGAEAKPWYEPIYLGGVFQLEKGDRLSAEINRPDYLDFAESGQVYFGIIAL
Chain of recombinant human IL-8 (P10145 28-99 limits assumed): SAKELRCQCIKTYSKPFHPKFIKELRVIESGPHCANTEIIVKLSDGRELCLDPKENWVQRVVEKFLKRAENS

B1: 2.5(E)mg1 (antibody, human IgG1, kappa, L234A L235A)
heavy: ZVQLVQSGTEVKKPGESLKISCKGSGYTVTSYWIGWVRQMPGKGLEWMGFIYPGDSETRYSPTFQGQVTISADKSFNTAFLQWSSLKASDTAMYYCARVGSGWYPYTFDIWGQGTMVTVSSASTKGPSVFPLAPSSKSTSGGTAALGCLVKDYFPEPVTVSWNSGALTSGVHTFPAVLQSSGLYSLSSVVTVPSSSLGTQTYICNVNHKPSNTKVDKKV[letters of human IgG1 Fc with changes not shown]
light: EIVMTQSPATLSVSPGERATLSCRASESISSNLAWYQQKPGQAPRLFIYTASTRATDIPARFSGSGSGTEFTLTISSLQSEDFAVYYCQQYNNWPSITFGQGTRLEIKRTVAAPSVFIFPPSDEQLKSGTASVVCLLNNFYPREAKVQWKVDNALQSGNSQESVTEQDSKDSTYSLSSTLTLSKADYEKHKVYACEVTHQGLSSPVTKSFNRGEC
notes: Human IgG1/kappa with L234A, L235A (mg1); also called 2.5(E)mg1 HuMAb; anti-IL-18 HuMAb 2.5(E)mg1
Take B1: the Kd in [1] came to 0.196 nM. This molecule also returned a koff in assay [1] of 5.24e-05 s⁻¹. This molecule also yielded a kon in [1] of 268000 M⁻¹ s⁻¹. The “human WBA IC50” value in assay [2] was below 5 nM. Moreover, the “KG-1 bioassay IC50” value in [3] is below 0.5 nM. Moreover, the binding result with recombinant human LTα2β1, with recombinant human IL-8, with recombinant human IL-3, with recombinant human IL-21, with recombinant human IL-10 and in the assay with recombinant human IL-7 was “no binding (tested: 1 µM)” throughout. Besides, the binding result in the assay with recombinant human IL-1β, with recombinant human IL-6, with recombinant human IL-4, with recombinant human TNF, with recombinant human LTα1β2 and in the assay with recombinant human IL-1α was “no binding (tested: 1 µM)” in each case. The molecule further registered an IC50 with 125I labeled rhu-IL-18 of 2.4 nM. The “WBA (IC50, nM)” value in assay [4] came out at 3 nM. Further, the “KG-1 (IC50, nM)” value in assay [5] was found to be 0.2 nM.
